B1: mTN8-19-7(-LE): mTN8-19-7 peptibody with the LE amino acids removed (protein)
chain: [letters of human IgG1 Fc left out]GGGGGAQLADHGQCIRWPWMCPPEGWE
B2: 2xmTN8-19-21(-LE): 2x mTN8-19-21 peptibody with the LE amino acids removed (protein)
chain: [letters of human IgG1 Fc left out]GGGGGAQSEYQGLCTRWPWMCPPQGWKGSGSATGGSGGGASSGSGSATGSEYQGLCTRWPWMCPPQGWK
B3: 2xmTN8-19-33(-LE): 2x mTN8-19-33 peptibody with the LE amino acids removed (protein)
chain: [letters of human IgG1 Fc left out]GGGGGAQPESQGHCTRWPWMCPPQGWGGSGSATGGSGGGASSGSGSATGPESQGHCTRWPWMCPPQGWG

Target: T1, myostatin (Homo sapiens, UniProt O14793)
T1 construct: To produce mature myostatin, the pooled promyostatin was enzymatically cleaved between the propeptide and mature myostatin C terminal; made in house; host or cells: E. coli K-12 strain 2596 (ATCC #202174)
T1 sequence (O14793 267-375): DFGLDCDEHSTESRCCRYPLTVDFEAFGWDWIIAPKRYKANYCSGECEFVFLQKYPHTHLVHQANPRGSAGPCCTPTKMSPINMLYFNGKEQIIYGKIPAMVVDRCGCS
Test: C2C12 pMARE-luc cell based myostatin activity assay
Details: Table VIII; affinity matured peptibodies; a range of values is given
From the text: A myostatin-responsive reporter cell line was generated by transfection of C2C12 myoblast cells (ATCC No: CRL-1772) with a pMARE-luc construct. The pMARE-luc construct was made by cloning twelve repeats of the CAGA sequence, representing the myostatin/activin response elements (Dennler et al. EMBO 17: 3091-3100 (1998)) into a pLuc-MCS reporter vector (Stratagene cat #219087) upstream of the TATA box. The myoblast C2C12 cells naturally express myostatin/activin receptors on its cell surface. When myostatin binds the cell receptors, the Smad pathway is activated, and phosphorylated Smad binds to the response element (Maciasi-Silva et al. Cell 87:1215 (1996)), resulting in the expression of the lucerase gene. Luciferase activity is then measured using a commercial luciferase reporter assay kit (cat #E4550, Promega, Madison, Wis.) according to manufacturer's protocol. A stable line of C2C12 cells that had been transfected with pMARE-luc (C2C12/pMARE clone #44) was used to measure myostatin activity according to the following procedure.
Equal numbers of the reporter cells (C2C12/pMARE clone #44) were plated into 96 well cultures. A first round screening using two dilutions of peptibodies was performed with the myostatin concentration fixed at 4 nM. Recombinant mature myostatin was pre-incubated for 2 hours at room temperature with peptibodies at 40 nM and 400 nM respectively. The reporter cell culture was treated with the myostatin with or without peptibodies for six hours. Myostatin activity was measured by determining the luciferase activity in the treated cultures. This assay was used to initially identify peptibody hits that inhibited the myostatin signaling activity in the reporter assay. Subsequently, a nine point titration curve was generated with the myostatin concentration fixed at 4 nM. The myostatin was preincubated with each of the following nine concentrations of peptibodies: […], 0.4 nM, 4 nM, 20 nM, 40 nM, 200 nM, 400 nM, 2 uM and 4 uM for two hours before adding the mixture to the reporter cell culture. […]

Molecule | IC50 [nM]
B1 | 1.75 to 2.68
B2 | 0.883 to 1.25
B3 | 1.03 to 1.12

Reference: US8920798B2, “Myostatin binding agents, nucleic acids encoding the same, and methods of treatment” (Amgen Inc., priority 2002, dated 2014)
